# Experimental data published in the supplement of paper PMC8728848.
# The list shows a part of the results.
# Experiments:
# Assay in all cases: glycan array binding signal (z-score within array); higher = stronger binding
# Conditions in all cases: glycan notation: IUPAC condensed, linker removed
# [1] = biological target: Gal(b1-3)[Neu5Ac(a2-6)]GlcNAc(a1-4)Gal(b1-4)Glc
# Method in brief: (§1)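 The binding signal is a Z-score computed within each array and averaged over linkers. Arrays of the same protein sequence at different concentrations or buffers were also averaged together. Data originate from 3228 arrays in the Consortium for Functional Glycomics database, kept only where the protein sequence was available.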
# [2] = biological target: Gal(b1-3)[Neu5Ac(b2-6)]GlcNAc
# Method in brief: as §1
# [3] = biological target: Gal(b1-4)GalNAc(a1-3)[Fuc(a1-2)]Gal(b1-4)GlcNAc
# Method in brief: as §1
# [4] = biological target: Gal(b1-4)GalNAc(b1-3)[Fuc(a1-2)]Gal(b1-4)GlcNAc
# Method in brief: as §1
# Gal(b1-4)Glc = biological target: Gal(b1-4)Glc
# Method in brief: as §1
# Gal(b1-4)Glc6S = biological target: Gal(b1-4)Glc6S
# Method in brief: as §1
# Gal(b1-4)GlcNAc = biological target: Gal(b1-4)GlcNAc
# Method in brief: as §1
# [5] = biological target: Gal(b1-4)GlcNAc(b1-2)Man(a1-3)[Gal(b1-4)GlcNAc(b1-2)Man(a1-6)]Man(b1-4)GlcNAc(b1-4)GlcNAc
# Method in brief: as §1
# [6] = biological target: Gal(b1-4)GlcNAc(b1-3)Gal(b1-3)GlcNAc
# Method in brief: as §1
# [7] = biological target: Gal(b1-4)GlcNAc(b1-3)Gal(b1-4)Glc
# Method in brief: as §1
# [8] = biological target: Gal(b1-4)GlcNAc(b1-3)Gal(b1-4)GlcNAc
# Method in brief: as §1
# [9] = biological target: Gal(b1-4)GlcNAc(b1-3)Gal(b1-4)GlcNAc(b1-3)Gal(b1-4)GlcNAc
# Method in brief: as §1
# [10] = biological target: Gal(b1-4)GlcNAc(b1-3)Gal(b1-4)[Fuc(a1-3)]GlcNAc(b1-3)Gal(b1-4)[Fuc(a1-3)]GlcNAc
# Method in brief: as §1
# [11] = biological target: Gal(b1-4)GlcNAc(b1-3)GalNAc
# Method in brief: as §1
# [12] = biological target: Gal(b1-4)GlcNAc(b1-3)[Gal(b1-4)GlcNAc(b1-6)]GalNAc
# Method in brief: as §1
# [13] = biological target: Gal(b1-4)GlcNAc(b1-6)GalNAc
# Method in brief: as §1
# [14] = biological target: Gal(b1-4)GlcNAc(b1-6)[Gal(b1-3)]GalNAc
# Method in brief: as §1
# [15] = biological target: Gal(b1-4)GlcNAc(b1-6)[Gal(b1-3)]GlcNAc
# Method in brief: as §1
# Gal3S(b1-3)GalNAc = biological target: Gal3S(b1-3)GalNAc
# Method in brief: as §1
# Gal3S(b1-3)GlcNAc = biological target: Gal3S(b1-3)GlcNAc
# Method in brief: as §1
# [16] = biological target: Gal3S(b1-3)[Fuc(a1-4)]GlcNAc
# Method in brief: as §1
# Gal3S(b1-4)Glc = biological target: Gal3S(b1-4)Glc
# Method in brief: as §1
# Gal3S(b1-4)Glc6S = biological target: Gal3S(b1-4)Glc6S
# Method in brief: as §1
# Gal3S(b1-4)GlcNAc = biological target: Gal3S(b1-4)GlcNAc
# Method in brief: as §1
# Gal3S(b1-4)GlcNAc6S = biological target: Gal3S(b1-4)GlcNAc6S
# Method in brief: as §1
# Gal3S6S(b1-4)GlcNAc = biological target: Gal3S6S(b1-4)GlcNAc
# Method in brief: as §1
# Gal3S6S(b1-4)GlcNAc6S = biological target: Gal3S6S(b1-4)GlcNAc6S
# Method in brief: as §1
# Gal4S(b1-4)GlcNAc = biological target: Gal4S(b1-4)GlcNAc
# Method in brief: as §1
# Gal4S6S(b1-4)GlcNAc = biological target: Gal4S6S(b1-4)GlcNAc
# Method in brief: as §1
# Gal6S(b1-4)Glc = biological target: Gal6S(b1-4)Glc
# Method in brief: as §1
# Gal6S(b1-4)Glc6S = biological target: Gal6S(b1-4)Glc6S
# Method in brief: as §1
# Gal6S(b1-4)GlcNAc = biological target: Gal6S(b1-4)GlcNAc
# Method in brief: as §1
# GalNAc(a1-3)Gal = biological target: GalNAc(a1-3)Gal
# Method in brief: as §1
# GalNAc(a1-3)GalNAc = biological target: GalNAc(a1-3)GalNAc
# Method in brief: as §1
# [17] = biological target: GalNAc(b1-3)Gal(a1-4)Gal(b1-4)GlcNAc
# Method in brief: as §1
# GalNAc(b1-4)GlcNAc = biological target: GalNAc(b1-4)GlcNAc
# Method in brief: as §1
# Glc(a1-4)Glc = biological target: Glc(a1-4)Glc
# Method in brief: as §1
# Glc(a1-6)Glc(a1-6)Glc = biological target: Glc(a1-6)Glc(a1-6)Glc
# Method in brief: as §1
# Glc(b1-4)Glc = biological target: Glc(b1-4)Glc
# Method in brief: as §1
# Glc(b1-6)Glc = biological target: Glc(b1-6)Glc
# Method in brief: as §1
# GlcA(b1-3)Gal = biological target: GlcA(b1-3)Gal
# Method in brief: as §1
# GlcA(b1-6)Gal = biological target: GlcA(b1-6)Gal
# Method in brief: as §1
# [18] = biological target: GlcNAc(a1-3)Gal(b1-4)GlcNAc
# Method in brief: as §1
# [19] = biological target: GlcNAc(a1-6)Gal(b1-4)GlcNAc
# Method in brief: as §1
# [20] = biological target: GlcNAc(b1-2)Gal(b1-3)GlcNAc
# Method in brief: as §1
binder,measurement,setting,value
"FBG4 (Homo sapiens), Q96EF6 (protein) MGARLSRRRLPADPSLALDALPPELLVQVLSHVPPRSLVTRCRPVCRAWRDIVDGPTVWLLQLARDRSAEGRALYAVAQRCLPSNEDKEEFPLCALARYCLRAPFGRNLIFNSCGEQGFRGWEVEHGGNGWAIEKNLTPVPGAPSQTCFVTSFEWCSKRQLVDLVMEGVWQELLDSAQIEICVADWWGARENCGCVYQLRVRLLDVYEKEVVKFSASPDPVLQWTERGCRQVSHVFTNFGKGIRYVSFEQYGRDVSSWVGHYGALVTHSSVRVRIRLS",glycan array binding signal (z-score),[1],-0.174
same,glycan array binding signal (z-score),[2],-0.314
same,glycan array binding signal (z-score),[3],-0.462
same,glycan array binding signal (z-score),[4],-0.55
same,glycan array binding signal (z-score),Gal(b1-4)Glc,-0.291
same,glycan array binding signal (z-score),Gal(b1-4)Glc6S,0.38
same,glycan array binding signal (z-score),Gal(b1-4)GlcNAc,-0.453
same,glycan array binding signal (z-score),[5],0.176
same,glycan array binding signal (z-score),[6],-0.379
same,glycan array binding signal (z-score),[7],-0.379
same,glycan array binding signal (z-score),[8],-0.449
same,glycan array binding signal (z-score),[9],0.007
same,glycan array binding signal (z-score),[10],-0.073
same,glycan array binding signal (z-score),[11],-0.488
same,glycan array binding signal (z-score),[12],-0.438
same,glycan array binding signal (z-score),[13],-0.564
same,glycan array binding signal (z-score),[14],-0.435
same,glycan array binding signal (z-score),[15],-0.377
same,glycan array binding signal (z-score),Gal3S(b1-3)GalNAc,-0.102
same,glycan array binding signal (z-score),Gal3S(b1-3)GlcNAc,-0.199
same,glycan array binding signal (z-score),[16],0.145
same,glycan array binding signal (z-score),Gal3S(b1-4)Glc,1.18
same,glycan array binding signal (z-score),Gal3S(b1-4)Glc6S,2.36
same,glycan array binding signal (z-score),Gal3S(b1-4)GlcNAc,0.201
same,glycan array binding signal (z-score),Gal3S(b1-4)GlcNAc6S,2.01
same,glycan array binding signal (z-score),Gal3S6S(b1-4)GlcNAc,1.22
same,glycan array binding signal (z-score),Gal3S6S(b1-4)GlcNAc6S,6.42
same,glycan array binding signal (z-score),Gal4S(b1-4)GlcNAc,-0.013
same,glycan array binding signal (z-score),Gal4S6S(b1-4)GlcNAc,1.17
same,glycan array binding signal (z-score),Gal6S(b1-4)Glc,0.71
same,glycan array binding signal (z-score),Gal6S(b1-4)Glc6S,3.24
same,glycan array binding signal (z-score),Gal6S(b1-4)GlcNAc,0.226
same,glycan array binding signal (z-score),GalNAc(a1-3)Gal,-0.465
same,glycan array binding signal (z-score),GalNAc(a1-3)GalNAc,-0.52
same,glycan array binding signal (z-score),[17],-0.171
same,glycan array binding signal (z-score),GalNAc(b1-4)GlcNAc,-0.505
same,glycan array binding signal (z-score),Glc(a1-4)Glc,-0.363
same,glycan array binding signal (z-score),Glc(a1-6)Glc(a1-6)Glc,0.044
same,glycan array binding signal (z-score),Glc(b1-4)Glc,0.332
same,glycan array binding signal (z-score),Glc(b1-6)Glc,0.064
same,glycan array binding signal (z-score),GlcA(b1-3)Gal,0.88
same,glycan array binding signal (z-score),GlcA(b1-6)Gal,0.226
same,glycan array binding signal (z-score),[18],-0.553
same,glycan array binding signal (z-score),[19],-0.578
same,glycan array binding signal (z-score),[20],-0.431
